Results from PubChem BioAssay AID588453 (National Center for Advancing Translational Sciences (NCATS), 2011).
Out of some 390,000 compounds screened, about 4,000 (1%) were called active. Inconclusive results, whose numbers are uncertain, are shown with a selection of clear calls. Calls come from the whole dose curve; as a rule, active = well fitted inhibition curve with a large enough effect; inconclusive = small, poorly fitted or top-dose-only effect; inactive = no such curve, though single readings can be large or run the other way. Potencies of inconclusive entries are doubtful fits and often do not repeat.

Biological target: Thioredoxin reductase 1, cytoplasmic (Rattus norvegicus) (UniProt O89049)
Experiment: qHTS Assay for Inhibitors of Mammalian Selenoprotein Thioredoxin Reductase 1 (TrxR1): qHTS; note: nearly all actives have a fitted effect of over 65% in size
Conditions: recombinant rTrxR1, NADPH fluorescence consumption, selenite substrate; series mostly up to 114 µM; activity change, negative = inhibition: at the top concentration
Procedure, shortened: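 Rat TrxR1 (90 nM in the dispensed reagent) was pre-reduced with 400 uM NADPH for 5 min at room temperature, then incubated with compound for 15 min. After 400 uM selenite was added, NADPH fluorescence (Ex 340/Em 450 nm) was followed for 8 min.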
% is set by controls: 0 for no effect and ±100 for the full control effect; potency is the fitted concentration of half-maximal effect; tags give direction and shape of the fitted curve.

Chain of UniProt O89049 (O89049 whole entry, looked up): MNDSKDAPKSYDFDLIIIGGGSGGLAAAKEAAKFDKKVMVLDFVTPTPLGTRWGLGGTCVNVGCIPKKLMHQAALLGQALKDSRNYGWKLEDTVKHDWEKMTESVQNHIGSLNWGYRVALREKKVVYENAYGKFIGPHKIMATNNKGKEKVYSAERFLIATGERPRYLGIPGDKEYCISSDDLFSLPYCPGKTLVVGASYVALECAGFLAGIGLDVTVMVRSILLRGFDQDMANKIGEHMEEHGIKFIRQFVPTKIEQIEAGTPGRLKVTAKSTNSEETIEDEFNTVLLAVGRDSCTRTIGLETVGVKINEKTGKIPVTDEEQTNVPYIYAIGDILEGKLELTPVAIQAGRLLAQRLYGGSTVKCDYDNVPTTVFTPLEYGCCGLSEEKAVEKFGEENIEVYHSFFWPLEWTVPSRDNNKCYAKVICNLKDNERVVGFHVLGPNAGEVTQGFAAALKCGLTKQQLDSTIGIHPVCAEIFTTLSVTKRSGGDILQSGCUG

| Structure (SMILES) | Potency | activity change, negative = inhibition |
| --- | --- | --- |
| O=C1c2ccccc2CC1Sc1nnc(-c2ccccn2)o1 (stereo unspecified) | inconclusive: 70.8 µM [inhibitor, partial curve] | – |
| COc1ccccc1NC(=S)Nc1cccc2cnccc12 | inconclusive: 44.7 µM [inhibitor, partial curve] | – |
| COc1ccc(CNC(=O)c2ccc3c(=O)n4c(nc3c2)CCCCC4)cc1OC | – | inactive: 2.41% |
| COc1ccc2cc(C(c3nnnn3Cc3ccccc3)N3CCCCCC3)c(=O)[nH]c2c1 (stereo unspecified) | inconclusive: 50.1 µM [inhibitor, partial curve] | – |
| CCOC(=O)CSc1nc2sc3c(c2c(=O)n1-c1ccc(OCC)cc1)CCN(C)C3 | – | inactive: 7.16% |
| Cc1c(CCC(=O)NCCCN2CCCC2=O)c(=O)oc2c(C)c(O)ccc12 | inconclusive: 50.1 µM [inhibitor, partial curve, poor fit] | – |
| [O-]/[N+](=N\Nc1ccc(Cl)cc1)c1ccccc1 | inconclusive: 31.6 µM [inhibitor, partial curve, poor fit] | – |
| CC1(OC(=O)c2cccs2)C(=O)C=C2C=C(C3CC3)OC=C2C1=O (stereo unspecified) | inconclusive: 70.8 µM [inhibitor, single point] | – |
| O=C(O)CCN1CC2([N+](=O)[O-])C=CC(=O)C([N+](=O)[O-])(C1)C2CC(=O)c1ccccc1 (stereo unspecified) | active: 14.1 µM | – |
| CSc1nc(C)cc(SC(C(C)=O)C(=O)Nc2ccccc2)n1 (stereo unspecified) | inconclusive: 0.178 µM [inhibitor, full curve, poor fit] | – |
| CSc1cccc(NC(=O)Nc2ccc(Cl)cc2)c1 | – | inactive: 5.46% [at 57.1 µM] |
| O=C(Cc1ccccc1)Nc1ccc(NC(=O)C2CC2)nc1 | inconclusive: 70.8 µM [inhibitor, single point] | – |
| CCc1ccccc1N=Cc1c(C)c(C#N)c2[nH]c3ccccc3n2c1=O | – | inactive: 6.69% |
| CCO/C(=C/c1sc2ccc(OC)cc2[n+]1CCCS(=O)(=O)[O-])CC | inconclusive: 89.1 µM [inhibitor, single point] | – |
| Cc1ccc(NC(=O)c2nc(S(=O)(=O)Cc3ccccc3C)ncc2Cl)cc1C | active: 31.6 µM | – |
| COc1cccc(/C=N/Nc2ccc(S(=O)(=O)O)cc2)c1O | – | inactive: 16.5% |
| COc1cc([N+](=O)[O-])ccc1NC(=O)Cn1ccsc1=N | inconclusive: 56.2 µM [inhibitor, partial curve, poor fit] | – |
| COC(=O)c1c(NS(=O)(=O)c2ccc3ccccc3c2)sc2c1CCCC2 | inconclusive: 70.8 µM [inhibitor, partial curve] | – |
| CCN(CC)c1ccc(/C=C2/C(=O)c3ccc(C(=O)O)cc3C2=O)cc1 | inconclusive: 35.5 µM [inhibitor, partial curve] | – |
| Cc1cc(Cl)n2c(nc3cc(F)c(F)cc32)c1C#N | active: 6.31 µM | – |
| c1ccc2c(c1)CCN(c1nc(CN3CCOCC3)nc3sc4c(c13)CCCC4)C2 | – | inactive: -19.4% |
| COc1cc(CNc2ncnc3c2[nH]c2ccc(C)cc23)cc(OC)c1 | – | inactive: 25.2% |
| Cc1ccc(S(=O)(=O)c2nc(-c3ccco3)oc2SCC(N)=O)cc1 | active: 79.4 µM | – |
| COc1ccc(C(C)=O)cc1CN(C)C | active: 8.91 µM | – |

| Structure (SMILES) | Potency | activity change, negative = inhibition |
| --- | --- | --- |
| C=CCOc1c(OC)cc(/C=N/Nc2cccc(C(=O)O)c2)c(Br)c1Br | – | inactive: -29.8% |
| COc1ccccc1NC(=O)/C=C/C(N)=O | active: 12.6 µM | – |
| Nc1c(Cl)ncnc1N/N=C/c1ccccn1 | inconclusive: 28.2 µM [inhibitor, partial curve, poor fit] | – |
| CCOc1cccc2cc(-c3nnc(NCc4ccco4)s3)c(=O)oc12 | active: 7.94 µM | – |
| Cc1cc(C)c2c(=O)c3c(oc2c1)C(=O)N(CCCOC(C)C)C3c1ccccc1F (stereo unspecified) | inconclusive: 89.1 µM [inhibitor, single point] | – |
| CCCC1=Nc2cc(C(=O)NC3CCCCC3)ccc2Sc2ccc(C)cc21 | – | inactive: 2.73% [at 57.1 µM] |
| Cc1ccc(NC(=S)c2ccc3ccccc3n2)c(C)c1 | – | inactive: -2.42% |
| CCN(CC)CCNC(=O)c1ccc(NC(=O)c2cc(-c3ccco3)nc3ccccc23)cc1 | inconclusive: 70.8 µM [inhibitor, partial curve] | – |
| Cc1c(-c2ccccc2)[n+](=O)c(-c2ccco2)c(C)n1[O-] | inconclusive: 28.2 µM [inhibitor, partial curve, poor fit] | – |
| CCCCCCNC(=O)c1cc(-c2ccco2)nc2ccccc12 | active: 3.55 µM | – |
| O=C(Nc1nc(-c2ccccc2Cl)cs1)c1cccnc1 | – | inactive: 15.4% |
| CCOC(=O)N1CCC(N(CCN(C)C)C(=S)Nc2ccc(Oc3ccccc3)cc2)CC1 | – | inactive: 15.1% |
| COCC(=O)N1CCC(Oc2ccc(C(=O)NCCCC3CCCC3)cc2)CC1 | inconclusive: 35.5 µM [inhibitor, single point] | – |
| Cc1ccc(NC(=O)CCC(=O)N/N=C/c2ccc([N+](=O)[O-])o2)cc1C | inconclusive: 3.55 µM [inhibitor, partial curve, poor fit] | – |
| Cc1onc(-c2ccccc2)c1C(=O)NNC(=S)NC(=O)c1ccc(F)cc1 | inconclusive: 31.6 µM [inhibitor, partial curve, poor fit] | – |
| COc1ccc(N2CC(NC(=O)C(c3ccccc3)c3ccccc3)CC2=O)cc1 (stereo unspecified) | – | inactive: 5.05% [at 57.1 µM] |
| CN1CCc2c(sc3c2C(=O)NC(c2ccco2)N3)C1 (stereo unspecified) | – | inactive: -35.5% [at 57.1 µM] |
| Fc1ccccc1-c1nc(-c2ccncc2)no1 | – | inactive: 22.6% |
| CCc1nc2nc(C)cc(Nc3cc(C)ccc3C)n2n1 | inconclusive: 79.4 µM [inhibitor, single point] | – |
| CCOc1ccc(C(C)=O)cc1CC(C(N)=O)C(N)=O | inconclusive: 89.1 µM [inhibitor, single point] | – |
| CC(C)N(C(=S)Nc1cccc(S(=O)(=O)N(C)C)c1)c1ccccc1 | inconclusive: 50.1 µM [inhibitor, partial curve] | – |
| CCC(Nc1ccc(-c2nc(-c3cccnc3)no2)cc1[N+](=O)[O-])c1ccccc1 (stereo unspecified) | – | inactive: 15.3% |
| O=C1C(Cl)=C(Nc2ccccc2O)C(=O)N1CCc1ccccc1 | inconclusive: 56.2 µM [inhibitor, partial curve, poor fit] | – |
| Cn1c(=S)c2[nH]c(SCCC(C)(C)C)nc2n(C)c1=O | inconclusive: 70.8 µM [inhibitor, partial curve] | – |

| Structure (SMILES) | Potency | activity change, negative = inhibition |
| --- | --- | --- |
| O=c1c(CN2CCN(c3cccc(Cl)c3)CC2)coc2c(Cl)cc(Cl)cc12 | – | inactive: 1.85% |
| O=S(=O)(c1cccs1)N1CN(CC2CCCO2)c2nc3ccccc3nc21 (stereo unspecified) | inconclusive: 12.6 µM [inhibitor, partial curve] | – |
| CSc1nnc(NC(=O)c2nc(S(=O)(=O)Cc3cccc(C)c3)ncc2Cl)s1 | inconclusive: 28.2 µM [inhibitor, full curve] | – |
| O=S(=O)(c1ccc(NCCCO)nc1)N1CCOCC1 | inconclusive: 89.1 µM [inhibitor, partial curve, poor fit] | – |
| COc1cc(-c2n[nH]c(=S)n2-c2ccc(Br)cc2)cc(OC)c1OC | inconclusive: 3.55 µM [inhibitor, partial curve] | – |
| CCOC(=O)c1cccc(NC(=O)CCNS(=O)(=O)c2cc(Br)cnc2N)c1 | – | inactive: 24.9% |
| O=C(c1noc2c1CCCC2)N1CCc2ccccc2C1 | – | inactive: 6.82% |
| Cc1ccc(-c2ccc(C3C(C#N)=C(N)Oc4n[nH]c(C)c43)o2)cc1 (stereo unspecified) | inconclusive: 28.2 µM [inhibitor, partial curve, poor fit] | – |
| O=S(=O)(NCc1ccco1)c1ccc(Cl)cc1Cl | inconclusive: 31.6 µM [inhibitor, partial curve] | – |
| O=C(c1ccco1)N1CCN(C(c2ccc(Cl)cc2)c2nnnn2Cc2ccccc2)CC1 (stereo unspecified) | inconclusive: 17.8 µM [inhibitor, partial curve, poor fit] | – |
| CCOc1cc(C=O)ccc1OCCCN1C(=O)NC(C)(C)C1=O | – | inactive: -7.92% [at 57.1 µM] |
| Cc1cc(C)c2cc(C#N)c(N3CCCN(C(=S)NCCCN(C)C)CC3)nc2c1 | inconclusive: 50.1 µM [inhibitor, partial curve, poor fit] | – |
| O=C(COc1ccccc1Cl)N1N=C(c2cccs2)CC1c1ccco1 (stereo unspecified) | inconclusive: 3.55 µM [inhibitor, partial curve, poor fit] | – |
| CCOC(=O)C1CCCN(C(=O)c2ccc(S(=O)(=O)NCc3ccco3)cc2)C1 (stereo unspecified) | inconclusive: 25.1 µM [inhibitor, single point] | – |
| COC(=O)c1cc2c(-c3ccccc3)c(C)c3ccccn3c-2c1C(=O)OC | – | inactive: -1.47% |
| N#C/C(=C/c1ccc(N2CCCCCC2)o1)c1ccc(Cl)cc1 | active: 8.91 µM | – |
| CC1=[N+](C)c2ccc3ccccc3c2C1(C)C | inconclusive: 79.4 µM [inhibitor, single point] | – |
| CC(=O)Nc1ccc(S(=O)(=O)Nc2nc3nc(-c4ccccc4)cc(-c4ccccc4)n3n2)cc1 | inconclusive: 39.8 µM [inhibitor, single point] | – |
| CCC(=O)NC(=S)Nc1ccc(NC(=O)c2ccccc2[N+](=O)[O-])cc1 | inconclusive: 14.1 µM [inhibitor, full curve, poor fit] | – |
| O=C(NCc1cccnc1)c1cc2nc(-c3cccs3)cc(C(F)(F)Cl)n2n1 | inconclusive: 89.1 µM [inhibitor, partial curve, poor fit] | – |
| O=C(O)CC(C(=O)O)N1C(=O)/C(=C/c2ccc(-c3nc4ccccc4s3)o2)SC1=S (stereo unspecified) | inconclusive: 44.7 µM [inhibitor, single point] | – |
| CCc1c(C)c2cc3c(c(C)c2oc1=O)OCN(CCc1ccc(OC)c(OC)c1)C3 | inconclusive: 56.2 µM [inhibitor, single point] | – |
| O=[N+]([O-])c1ccc(N=Nc2ncc[nH]2)cc1 | inconclusive: 3.16 µM [inhibitor, full curve] | – |
